Assay results reported in the supplement of paper PMC3724861.
Some of the results follow.

system: T1, Caupolican (Caup) homeodomain DNA-binding domain; test: PBM E-score (8-mer, recovered from the published 9-mer minima) (E-score (dimensionless, -0.5 to 0.5)); Drosophila protein; higher = stronger relative binding preference, active = 0.31 or more
T1 sequence: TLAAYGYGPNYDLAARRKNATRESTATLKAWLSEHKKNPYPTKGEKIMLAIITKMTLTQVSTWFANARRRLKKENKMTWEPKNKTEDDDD
In short: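 Caup's homeodomain DNA-binding domain (residues 214-303) was produced by in vitro transcription and translation and applied at 100 nM to custom-designed protein binding microarrays. Each value is an enrichment score giving relative binding preference for a short DNA word; higher means stronger. Published 9-mer scores were the minimum of their two constituent 8-mer scores, and the 8-mer values were recovered from those minima. A cutoff of 0.31 marks candidate binding sequences.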

| Sequence | PBM E-score |
| --- | --- |
| CCCCTACG | inactive: -0.256 |
| CGCACTAC | inactive: -0.021 |
| CCAGCTTC | inactive: -0.128 |
| GGCGAAGA | inactive: -0.162 |
| CTGAATAA | inactive: 0.0803 |
| TAATTATA | inactive: 0.234 |
| AGACGGGG | inactive: -0.292 |
| CCGTGTAC | active: 0.411 |
| CAGTACTA | inactive: 0.183 |
| ATAACCCC | inactive: -0.0574 |
| ACTCTCCC | inactive: -0.139 |
| AATAGACT | inactive: 0.0817 |
| ATCGGGGC | inactive: -0.202 |
| ACCAAGGA | inactive: 0.00106 |
| AAGCGCGA | inactive: -0.033 |
| GACATAGC | inactive: 0.254 |
| ATCGCACG | inactive: -0.0229 |
| TCGGCAAA | inactive: -0.0466 |
| GAGCGATC | inactive: -0.0393 |
| CTTCCATC | inactive: -0.159 |
| ATCAGTTG | inactive: 0.218 |
| CGACCAGA | inactive: 0.0428 |
| GATCTTGC | inactive: -0.00744 |
| CTAATAGA | inactive: 0.0917 |

| Sequence | PBM E-score |
| --- | --- |
| GCCGCGAA | inactive: -0.267 |
| ATATAGTA | inactive: 0.181 |
| CATCCCCC | inactive: -0.251 |
| CGTCCGAC | inactive: -0.0861 |
| GGAACGAC | inactive: 0.0391 |
| GACGAAGC | inactive: -0.0968 |
| CTCATAAG | inactive: 0.0492 |
| TCTGCGCA | ≥ -0.0554 |
| AGAGGTAC | inactive: 0.0429 |
| CGAAATAG | inactive: -0.00544 |
| CTCGAAGC | inactive: -0.192 |
| ACAAGACC | inactive: 0.173 |
| ACCAGGAG | inactive: -0.174 |
| GTCGTGGA | inactive: -0.0165 |
| CCTATATC | inactive: 0.0204 |
| AATTCCTC | inactive: -0.0138 |
| ACTTGAGC | inactive: -0.086 |
| GATTTTAC | inactive: 0.156 |
| ACATGAGT | inactive: 0.305 |
| GAGAAAGA | inactive: -0.0597 |
| TCTAGGAA | inactive: -0.0135 |
| CGTTAACC | inactive: 0.0249 |
| AATATTAT | inactive: 0.223 |
| CGAAAACC | inactive: 0.00237 |

| Sequence | PBM E-score |
| --- | --- |
| AGCCATCA | inactive: -0.00784 |
| GACTGAAA | inactive: 0.00625 |
| AGGCCCTA | inactive: -0.104 |
| AGATACTA | inactive: 0.12 |
| CAGGTAGG | inactive: -0.0492 |
| CACTTGGA | inactive: 0.0572 |
| AGAGTCAC | inactive: -0.0337 |
| ACATTCGG | inactive: 0.173 |
| GAACAGCC | inactive: -0.0666 |
| CTCCCTCC | inactive: -0.268 |
| CAACTGCG | inactive: -0.039 |
| AACCATAC | inactive: 0.101 |
| TGACTACA | inactive: 0.269 |
| CACTACGC | inactive: -0.14 |
| ATCCAGGA | ≥ 0.0324 |
| GAGCAAAA | inactive: -0.0468 |
| AATCTTAG | inactive: -0.0734 |
| AGTGTTAT | inactive: 0.206 |
| ATTTGCGC | inactive: -0.0699 |
| GATCCCAC | inactive: -0.0457 |
| GTAGATGA | inactive: 0.0909 |
| GGCGAAAC | inactive: -0.0989 |
| TGGATCCA | inactive: -0.022 |
| CTGCCATA | inactive: -0.0522 |

| Sequence | PBM E-score |
| --- | --- |
| AGCGCTAC | inactive: -0.0476 |
| AAAGAGGG | inactive: -0.126 |
| TAACCATA | inactive: 0.0949 |
| AATCTAAC | inactive: 0.103 |
| AATATTGT | inactive: 0.264 |
| GCGTTTGA | inactive: -0.0785 |
| AGCATATC | inactive: 0.138 |
| ATGATCCA | inactive: 0.00317 |
| CCCATCTA | inactive: -0.0927 |
| ACACCATA | inactive: 0.228 |
| ACTACGTA | inactive: 0.0515 |
| CCCAACTA | inactive: 0.0333 |
| CCCGAGAG | inactive: -0.252 |
| CTACGTGA | inactive: -0.0162 |
| GCGGGCAA | inactive: -0.0686 |
| ATAGCTGC | inactive: 0.0345 |
| AATTCGCC | inactive: -0.0305 |
| CATTCGTC | inactive: 0.0539 |
| GGTTGGCA | inactive: -0.0694 |
| CTAAGTCA | inactive: 0.00292 |
| ACTTAGTA | inactive: 0.15 |
| ACATCGGG | inactive: 0.00988 |
| GAACCTAC | inactive: 0.0316 |
| ACTTACAG | inactive: 0.187 |

| Sequence | PBM E-score |
| --- | --- |
| CGCGGTCA | inactive: -0.176 |
| GTACTAGA | inactive: 0.285 |
| AAGCCTGA | inactive: -0.152 |
| CTTGCAAC | inactive: 0.155 |
| AAAATCCC | inactive: 0.00404 |
| GCTGACAA | inactive: 0.217 |
| ATCAACGC | inactive: 0.0719 |
| GGTGCCCA | inactive: -0.169 |
| AGTACGTG | inactive: 0.0988 |
| ATACAGAG | inactive: 0.0668 |
| GCCGCAAC | inactive: -0.0978 |
| CCAGCTAG | inactive: 0.00105 |
| CTCAGGCA | inactive: -0.141 |
| AGAAGAAG | inactive: -0.132 |
| CTGGTCCA | inactive: 0.0298 |
| ATACCGCA | inactive: 0.0209 |
| GATAGCGA | inactive: 0.0517 |
| CCTGTGCC | inactive: -0.18 |
| GTTGGCGA | inactive: -0.104 |
| CCGGATCA | inactive: 0.0365 |
| CCGATGCA | inactive: -0.0775 |
| AATACGAT | inactive: 0.166 |
| ATACGCGA | inactive: 0.107 |
| CAGTCTCG | inactive: -0.121 |

| Sequence | PBM E-score |
| --- | --- |
| ATACAGGG | inactive: 0.164 |
| CTCTACTA | inactive: 0.0272 |
| CTGACCCC | inactive: -0.261 |
| ACCGTTGA | inactive: -0.00014 |
| AATCCTCT | inactive: -0.0947 |
| ACCGTACT | inactive: 0.0878 |
| CACTTCAG | inactive: 0.0111 |
| ACACTTAT | inactive: 0.182 |
| CTCAACAC | inactive: 0.131 |
| GGTTGGGA | inactive: -0.118 |
| CATATCGA | inactive: 0.102 |
| CAGGCGGC | inactive: -0.253 |
| CCACTCCC | inactive: -0.203 |
| ATCTATAC | ≥ 0.178 |
| CGGCTTGC | inactive: -0.117 |
| AACACAGC | inactive: 0.231 |
| AACACAAG | inactive: 0.228 |
| TGAAAACA | inactive: 0.214 |
| AGAAAGCA | inactive: 0.0369 |
| ACCCACCC | ≥ -0.059 |
| GGTAGTAC | inactive: 0.167 |
| CTCCCGCA | inactive: -0.192 |
